Laboratory results published in PubChem BioAssay AID686979 (National Center for Advancing Translational Sciences (NCATS), 2013).
Hit rate of the full screen: of about 420,000 compounds, about 50,000 (12%) were called active. Inconclusive means that the source gave no clear call. Such entries were picked first, then a sample of the others. The call rests on the fitted dose curve; in most records, active means well fitted inhibition curve with a large enough effect; inconclusive means small, poorly fitted or top-dose-only effect; inactive means flat fitted curve, though single readings scatter. Potencies of inconclusive entries are left out as doubtful fits.

Experiment: qHTS for Inhibitors of human tyrosyl-DNA phosphodiesterase 1 (TDP1): qHTS in cells in presence of CPT; further: nearly all actives have a fitted effect of over 55% in size
Settings: chicken DT40 Tdp1-/-;hTDP1 cells + 20 nM CPT, ATP luminescence, 48 h; activity change, negative = growth inhibition: at 46.2 µM (top of the series)
Method in brief: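 Chicken DT40 Tdp1-/- cells complemented with human TDP1, 400 cells/well, exposed to compounds plus 20 nM camptothecin for at least 48 h at 37 C; viability read as ATP content by CellTiter-Glo luminescence.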
On the % scale 0 is the no-effect control and ±100 the full control effect; potency means the concentration at half of the fitted maximal effect; tags describe the fitted curve by direction and shape.

SMILES | Potency | activity change, negative = growth inhibition
CC(C)C[C@@H]1O[C@H](C(C)C)Cc2[nH][nH]c(=O)c21 | inconclusive [inhibitor, single point] | –
Cc1ccc(OCC(O)Cn2c(=N)n(CCN3CCCCC3)c3ccccc32)cc1 (stereo not drawn) | active: 5.17 µM | –
Cc1nc2ccccc2c(=O)n1/N=C/c1ccccc1Cl | – | inactive: -6.05%
Cc1ccc(-n2ncc(C(=O)NCCCN3CCCCC3)c2C2CCN(C(=O)OC(C)(C)C)CC2)cc1 | inconclusive [inhibitor, single point] | –
COC1=Nc2ccccc2/C=C\c2ccccc21 | – | inactive: -11.1%
O=C(/C=C/c1ccccc1)NC(=S)Nc1ccc(N2CCOCC2)c(Cl)c1 | inconclusive [inhibitor, single point] | –
COc1cc(CNCCc2ccccc2F)ccc1OCc1ccc(Cl)nc1 | active: 14.6 µM | –
Cc1ccc(NC(=O)c2c(C)nc3sc(C(=O)Nc4ccc(F)cc4)c(N)c3c2-c2ccccc2Cl)c(C)c1 | inconclusive [inhibitor, single point] | –
Cc1ccc(S(=O)(=O)NN2C(=O)/C(=C/c3ccc(C(=O)O)cc3)SC2=S)cc1 | – | inactive: 33.7%
CC1(C(=O)NCc2cccc(C(F)(F)F)c2)CCN1Cc1cc2ccccc2o1 (stereo not drawn) | active: 25.9 µM | –
CC(CCc1ccccc1)NC(=O)CN1CCN(Cc2ccccc2)C1=O (stereo not drawn) | inconclusive [inhibitor, partial curve] | –
CCOC(=O)c1c(C)n(-c2ccccc2)c2ccc(OC(=O)c3ccccc3NC(=O)C(C)(C)C)cc12 | inconclusive [inhibitor, single point] | –
CCCn1nnnc1NC(=O)CSc1ccc(Cl)cc1 | inconclusive [inhibitor, single point] | –
C[C@]12c3[nH]c4cc(-c5ccco5)ccc4c3CCN1C(=O)[C@@H](CC(=O)NCc1ccco1)C[C@@H]2C(=O)N1CCOCC1 | inconclusive [inhibitor, single point] | –
Cn1cc(-c2csc(C(C)(O)c3cccc(F)c3)n2)cn1 (stereo not drawn) | – | inactive: -9.06%
COc1ccccc1/C=C/C=N/NC(=O)CN1CCN(S(=O)(=O)c2ccc(C)cc2)CC1 | inconclusive [inhibitor, single point] | –
CCOc1ccc(CC(=O)Nc2ccc(S(=O)(=O)N3CCCC3)cc2)cc1 | inconclusive [inhibitor, partial curve] | –
COc1ccc(S(=O)(=O)N(CC(=O)N2CCN(C)CC2)c2ccc(C)cc2)cc1Br | – | inactive: -17%
COc1ccc(CNC(=O)CNC(=O)CNS(=O)(=O)c2ccc(C)c(C)c2)cc1 | – | inactive: 0.37%
CC1=C(C#N)C(/C=N/OCc2ccc(F)cc2Cl)CC(=O)N1 (stereo not drawn) | inconclusive [inhibitor, single point] | –
CC(=O)Nc1cc(C(F)(F)F)ccc1Oc1cccc(Br)c1 | active: 23.1 µM | –
O=C(COC(=O)c1ccccc1NCCO)NCCC1=CCCCC1 | – | inactive: -21%
CC(C)C1=NN(C(=O)c2cccnc2)C(O)(C(F)(F)F)C1 (stereo not drawn) | inconclusive [inhibitor, single point] | –
CCc1ccc(S(=O)(=O)c2cn(CC)c3cc(N4CCOCC4)c(F)cc3c2=O)cc1 | active: 14.6 µM | –

SMILES | Potency | activity change, negative = growth inhibition
O=S(=O)(NCc1ccncc1)c1ccccc1 | active: 23.1 µM | –
O=C(/C=C/c1ccc(F)cc1)N1CCN(Cc2ccccc2)CC1 | inconclusive [inhibitor, single point] | –
CCOC(=O)Cn1cnc2sc3c(c2c1=O)CCC3 | – | inactive: -13.7%
CCN(CC)CCN1C(=O)c2ccccc2NC1c1ccc(Br)cc1 (stereo not drawn) | inconclusive [inhibitor, single point] | –
Cc1ccsc1C(=O)Nc1n[nH]c(C(F)(F)F)n1 | inconclusive [inhibitor, partial curve, poor fit] | –
CC(=O)c1cccc(NC(=O)CCNS(=O)(=O)c2cccc3nsnc23)c1 | – | inconclusive: -36.9% [inhibitor]
Cc1ccc(N2CC(NC(=O)N3CCN(C(=O)c4ccco4)CC3)CC2=O)cc1 (stereo not drawn) | – | inactive: 5.54%
COc1cc(Cl)c(CC(=O)c2c[nH]c3ccccc23)cc1OC | inconclusive [inhibitor, single point] | –
O=C1NC(c2ccccc2Cl)Nc2ccccc21 (stereo not drawn) | inconclusive [inhibitor, single point] | –
O=c1cnc2cncnc2n1Cc1ccccc1Cl | active: 2.31 µM | –
Nc1cc2c(cc1Br)-c1ccc(F)cc1C2=O | – | inactive: -14.1%
Cc1ccc(CNC(=O)C2CCN(S(=O)(=O)c3ccc4c(c3)CCCN4C(=O)C3CCC3)CC2)cc1 | active: 20.6 µM | –
Cc1ccc(-n2ncc3c(=O)n(CC(=O)N(C(C)C)C(C)C)cnc32)cc1 | – | inactive: -2.97%
Cc1ccc(NC(=O)C2CC(=O)N(c3ccc4c5c(cccc35)CC4)C2)cc1 (stereo not drawn) | inconclusive [inhibitor, single point] | –
COc1ccc(C(=O)Nc2ccc(N3CCCC3)cc2)cc1OC | inconclusive [inhibitor, partial curve] | –
CCOc1ccc2c(c1)c(=O)c(S(=O)(=O)c1ccccc1)cn2CC(=O)Nc1ccccc1OC | – | inactive: 4.84%
COc1cc(/C=C2\SC(=O)N(CCNC(=O)c3cnc(C)cn3)C2=O)cc(OC)c1OC | inconclusive [inhibitor, single point] | –
Cc1cc(CN2CCCCC2)oc1C(=O)O | – | inactive: -7.3%
Cc1nn(CCCC(=O)NCCc2ccccc2)c(C)c1[N+](=O)[O-] | – | inactive: 5.97%
CCc1cc[n+](/C(C(=S)Nc2cccc(C)c2)=C(/[O-])c2ccc(C)c([N+](=O)[O-])c2)cc1 | active: 16.4 µM | –
COc1cc(/C=N/Nc2cccc3cccnc23)cc(OC)c1O | inconclusive [inhibitor, single point] | –
CC(=O)C(C(c1ccccc1)N1CCOCC1)N1CCOCC1 (stereo not drawn) | inconclusive [inhibitor, single point] | –
CC(COc1ccc(/C=C/c2ccccc2)cc1)[N+](C)(C)C (stereo not drawn) | active: 4.11 µM | –
CC(=O)c1c2c3c(c(Br)ccc3n(C)c1=O)C(=O)c1ccccc1-2 | inconclusive [inhibitor, single point] | –
